Results published in PubChem BioAssay AID504332 (National Center for Advancing Translational Sciences (NCATS), 2011).
The campaign covered roughly 350,000 compounds. About 31,000 (8.9%) were called active. The inconclusive results got no clear call from the source; some entries with a clear call stand among them for comparison. Calls come from the whole dose curve; as a rule, active = well fitted inhibition curve with a large enough effect; inconclusive = small, poorly fitted or top-dose-only effect; inactive = no such curve, though single readings can be large or run the other way. A potency beside an inconclusive call is a rough fit, not a confirmed value.

What follows are molecules tested against Histone-lysine N-methyltransferase EHMT2 (Homo sapiens) (UniProt Q96KQ7) (assay: qHTS Assay for Inhibitors of Histone Lysine Methyltransferase G9a). Conditions: G9a H3K9 monomethylation, AlphaScreen, 2 h; activity, negative = inhibition: at 59 µM (top of the series) unless noted.
Sequence of UniProt Q96KQ7 (Q96KQ7 whole entry, looked up): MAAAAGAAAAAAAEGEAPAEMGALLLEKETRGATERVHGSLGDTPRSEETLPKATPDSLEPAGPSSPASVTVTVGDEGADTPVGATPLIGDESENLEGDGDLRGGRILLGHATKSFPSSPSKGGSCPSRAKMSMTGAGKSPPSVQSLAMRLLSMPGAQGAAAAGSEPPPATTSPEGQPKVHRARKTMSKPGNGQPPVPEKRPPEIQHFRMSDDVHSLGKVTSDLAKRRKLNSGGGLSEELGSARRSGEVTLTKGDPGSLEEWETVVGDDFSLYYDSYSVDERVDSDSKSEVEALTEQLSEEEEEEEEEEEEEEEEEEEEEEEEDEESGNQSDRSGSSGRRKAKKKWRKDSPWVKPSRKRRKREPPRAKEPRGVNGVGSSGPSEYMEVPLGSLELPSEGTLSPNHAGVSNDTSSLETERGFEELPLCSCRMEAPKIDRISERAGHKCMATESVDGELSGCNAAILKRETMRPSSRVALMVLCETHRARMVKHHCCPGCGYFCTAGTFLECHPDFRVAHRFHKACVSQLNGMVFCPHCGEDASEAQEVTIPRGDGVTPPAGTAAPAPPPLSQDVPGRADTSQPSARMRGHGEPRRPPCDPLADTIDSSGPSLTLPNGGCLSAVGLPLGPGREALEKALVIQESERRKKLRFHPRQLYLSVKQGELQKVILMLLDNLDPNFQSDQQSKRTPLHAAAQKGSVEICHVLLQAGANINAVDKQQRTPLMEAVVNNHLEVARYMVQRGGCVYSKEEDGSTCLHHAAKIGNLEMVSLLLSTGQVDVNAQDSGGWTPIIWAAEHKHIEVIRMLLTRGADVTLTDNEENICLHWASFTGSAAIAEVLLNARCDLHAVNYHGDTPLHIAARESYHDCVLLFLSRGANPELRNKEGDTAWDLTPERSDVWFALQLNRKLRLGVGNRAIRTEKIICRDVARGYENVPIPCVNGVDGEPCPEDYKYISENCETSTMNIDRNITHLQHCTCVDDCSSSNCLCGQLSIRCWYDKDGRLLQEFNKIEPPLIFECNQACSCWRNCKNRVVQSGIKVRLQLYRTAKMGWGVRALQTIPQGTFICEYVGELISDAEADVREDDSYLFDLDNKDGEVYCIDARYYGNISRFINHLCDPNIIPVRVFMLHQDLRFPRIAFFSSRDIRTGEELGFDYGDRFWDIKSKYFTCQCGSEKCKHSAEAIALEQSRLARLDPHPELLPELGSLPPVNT
Summary of the method: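 AlphaScreen read-out: biotin-H3K9 peptide (500 nM) methylation by 20 nM enzyme with 20 uM SAM, 2 h at room temperature after 15 min compound preincubation; anti-monomethyl H3K9 antibody plus donor/acceptor beads, 10 min dark.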
% is set by controls: 0 for no effect and ±100 for the full control effect; potency is the fitted concentration of half-maximal effect; tags give direction and shape of the fitted curve.
Note: nearly all actives have a fitted effect of over 75% in size.

Row | Compound | Potency | activity, negative = inhibition
1 | NC(=O)C1CCN(C(=O)c2cc3ccccc3cc2O)CC1 | inconclusive: 11.2 µM [inhibitor, partial curve, poor fit] | –
2 | NC(=O)c1ccccc1NC(=O)Cn1nc(Cc2cccnc2)c2ccccc2c1=O | inconclusive: 39.8 µM [inhibitor, single point] | –
3 | CC1(C)CC(=O)c2cc(N=C/C(C(=O)c3ccccc3)=C(\O)c3ccccc3)c(=O)oc2C1 | active: 25.1 µM | –
4 | CC1CN(c2snnc2C=C2C(=O)OC(C)(C)OC2=O)CC(C)O1 (centres undefined) | inconclusive: 50.1 µM [inhibitor, partial curve, poor fit] | –
5 | O=C(Nc1sc2c(c1C(=O)O)CCCCC2)c1ccccc1F | inconclusive: 50.1 µM [inhibitor, partial curve] | –
6 | O=C(O)CSCC(=O)NCc1cccc(C(F)(F)F)c1 | inconclusive: 39.8 µM [inhibitor, single point] | –
7 | CCOc1ccc(CNC(=O)c2sc3ncnc(N(C)C4CCCCC4)c3c2C)cc1 | – | inactive: 1.46%
8 | O=C(c1ccco1)c1cc2c(ccc3ccccc32)oc1=O | inconclusive: 79.4 µM [inhibitor, partial curve, poor fit] | –
9 | CC(=O)Nc1ccc(S(=O)(=O)N(C)CC(=O)OCC(=O)N(C)C2CCS(=O)(=O)C2)cc1 (centres undefined) | inconclusive: 56.2 µM [inhibitor, partial curve, poor fit] | –
10 | C/C(=N/NC(=O)c1ccccn1)c1c[nH]c2ccccc12 | – | inconclusive: -90.8% [inhibitor]
11 | O=C(Nc1ccc(Cl)c(-c2nc3ccccc3[nH]2)c1)c1ccc2c(c1)OCO2 | inconclusive: 8.91 µM [inhibitor, partial curve, poor fit] | –
12 | COc1ccc(C2/C(=C(/O)c3ccc(OC(C)C)cc3)C(=O)C(=O)N2CCCN2CCOCC2)cc1 (centres undefined) | active: 44.7 µM | –
13 | COc1cccc(-c2nc(CS(=O)(=O)CC(=O)Nc3ccccc3Br)c(C)o2)c1 | – | inactive: 4.97% [at 102 µM]
14 | O=C(O)c1ncsc1-c1ccccc1 | active: 14.1 µM | –
15 | COCCCNC(c1ccccc1)c1ccncc1 (centres undefined) | inconclusive: 56.2 µM [inhibitor, partial curve, poor fit] | –
16 | CN=C(Nc1cc(Cl)ccc1Cl)SC1CC(=O)N(c2ccc(C(=O)OC)cc2)C1=O (centres undefined) | active: 50.1 µM | –
17 | Cc1cccc(C(=O)OCC(=O)NC(=O)c2ccccc2)c1O | – | inactive: -1.14% [at 0.501 µM]
18 | CCOc1ccc(NC(=O)CN2C(=O)C3CCCN3C2=O)cc1 (centres undefined) | inconclusive: 25.1 µM [inhibitor, partial curve, poor fit] | –
19 | CCCNC(=S)N1CCN(c2nc(-c3cccc(OC)c3)cs2)CC1 | inconclusive: 56.2 µM [inhibitor, partial curve, poor fit] | –
